# Measured values taken from the supplement of paper PMC8728848.
# The list shows a part of the results.
# How the values were obtained:
# Experiment in all cases: glycan array binding signal (z-score within array); higher = stronger binding
# Conditions in all cases: glycan notation: IUPAC condensed, linker removed
# Gal(b1-2)Gal = molecular target: Gal(b1-2)Gal
# In short: (§1)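 Negative Z-scores can be read as non-binding. The Z-score is calculated within each array and then averaged across arrays of one protein sequence at different concentrations or buffers and across linkers. Arrays, 3228 in all, were curated from the Consortium for Functional Glycomics database and kept only where the protein sequence was available.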
# Gal(b1-3)Gal = molecular target: Gal(b1-3)Gal
# In short: as §1
# Gal(b1-3)Gal(b1-4)GlcNAc = molecular target: Gal(b1-3)Gal(b1-4)GlcNAc
# In short: as §1
# Gal(b1-3)GalNAc = molecular target: Gal(b1-3)GalNAc
# In short: as §1
# [1] = molecular target: Gal(b1-3)GalNAc(a1-3)[Fuc(a1-2)]Gal(b1-4)Glc
# In short: as §1
# [2] = molecular target: Gal(b1-3)GalNAc(a1-3)[Fuc(a1-2)]Gal(b1-4)GlcNAc
# In short: as §1
# Gal(b1-3)GalNAc(b1-3)Gal = molecular target: Gal(b1-3)GalNAc(b1-3)Gal
# In short: as §1
# [3] = molecular target: Gal(b1-3)GalNAc(b1-3)Gal(a1-4)Gal(b1-4)Glc
# In short: as §1
# [4] = molecular target: Gal(b1-3)GalNAc(b1-4)Gal(b1-4)Glc
# In short: as §1
# [5] = molecular target: Gal(b1-3)GalNAc(b1-4)[Neu5Ac(a2-3)]Gal(b1-4)Glc
# In short: as §1
# Gal(b1-3)GlcNAc = molecular target: Gal(b1-3)GlcNAc
# In short: as §1
# [6] = molecular target: Gal(b1-3)GlcNAc(a1-3)Gal(b1-4)GlcNAc
# In short: as §1
# [7] = molecular target: Gal(b1-3)GlcNAc(a1-6)Gal(b1-4)GlcNAc
# In short: as §1
# Gal(b1-3)GlcNAc(b1-2)Man = molecular target: Gal(b1-3)GlcNAc(b1-2)Man
# In short: as §1
# [8] = molecular target: Gal(b1-3)GlcNAc(b1-2)Man(a1-3)[Gal(b1-3)GlcNAc(b1-2)Man(a1-6)]Man(b1-4)GlcNAc(b1-4)GlcNAc
# In short: as §1
# [9] = molecular target: Gal(b1-3)GlcNAc(b1-2)Man(a1-3)[Gal(b1-3)GlcNAc(b1-2)Man(a1-6)]Man(b1-4)GlcNAc(b1-4)[Fuc(a1-6)]GlcNAc
# In short: as §1
# [10] = molecular target: Gal(b1-3)GlcNAc(b1-2)Man(a1-3)[GlcNAc(b1-4)][Gal(b1-3)GlcNAc(b1-2)Man(a1-6)]Man(b1-4)GlcNAc(b1-4)GlcNAc
# In short: as §1
# [11] = molecular target: Gal(b1-3)GlcNAc(b1-2)[Gal(b1-3)GlcNAc(b1-6)]Man(a1-6)[Gal(b1-3)GlcNAc(b1-2)Man(a1-3)]Man(b1-4)GlcNAc(b1-4)GlcNAc
# In short: as §1
# [12] = molecular target: Gal(b1-3)GlcNAc(b1-3)Gal(b1-3)GlcNAc
# In short: as §1
# [13] = molecular target: Gal(b1-3)GlcNAc(b1-3)Gal(b1-4)Glc
# In short: as §1
# [14] = molecular target: Gal(b1-3)GlcNAc(b1-3)Gal(b1-4)GlcNAc
# In short: as §1
# [15] = molecular target: Gal(b1-3)GlcNAc(b1-3)Gal(b1-4)GlcNAc(b1-2)Man(a1-3)[Gal(b1-3)GlcNAc(b1-3)Gal(b1-4)GlcNAc(b1-2)Man(a1-6)]Man(b1-4)GlcNAc(b1-4)GlcNAc
# In short: as §1
# [16] = molecular target: Gal(b1-3)GlcNAc(b1-3)Gal(b1-4)GlcNAc(b1-2)[Gal(b1-3)GlcNAc(b1-3)Gal(b1-4)GlcNAc(b1-6)]Man(a1-6)[Gal(b1-3)GlcNAc(b1-3)Gal(b1-4)GlcNAc(b1-2)Man(a1-3)]Man(b1-4)GlcNAc(b1-4)[Fuc(a1-6)]GlcNAc
# In short: as §1
# [17] = molecular target: Gal(b1-3)GlcNAc(b1-3)Gal(b1-4)GlcNAc(b1-3)Gal(b1-4)GlcNAc(b1-2)[Gal(b1-3)GlcNAc(b1-3)Gal(b1-4)GlcNAc(b1-3)Gal(b1-4)GlcNAc(b1-6)]Man(a1-6)[Gal(b1-3)GlcNAc(b1-3)Gal(b1-4)GlcNAc(b1-3)Gal(b1-4)GlcNAc(b1-2)Man(a1-3)]Man(b1-4)GlcNAc(b1-4)[Fuc(a1-6)]GlcNAc
# In short: as §1
# [18] = molecular target: Gal(b1-3)GlcNAc(b1-3)Gal(b1-4)GlcNAc(b1-6)[Gal(b1-3)GlcNAc(b1-3)]Gal(b1-4)Glc
# In short: as §1
# [19] = molecular target: Gal(b1-3)GlcNAc(b1-3)Gal(b1-4)[Fuc(a1-3)]GlcNAc
# In short: as §1
# [20] = molecular target: Gal(b1-3)GlcNAc(b1-3)Gal(b1-4)[Fuc(a1-3)]GlcNAc(b1-6)[Gal(b1-3)GlcNAc(b1-3)]Gal(b1-4)Glc
# In short: as §1
# [21] = molecular target: Gal(b1-3)GlcNAc(b1-3)GalNAc
# In short: as §1
# [22] = molecular target: Gal(b1-3)GlcNAc(b1-6)Gal(b1-4)GlcNAc
# In short: as §1
# [23] = molecular target: Gal(b1-3)GlcNAc(b1-6)GalNAc
# In short: as §1
# [24] = molecular target: Gal(b1-3)GlcNAc(b1-6)[Gal(b1-3)]GalNAc
# In short: as §1
# Gal(b1-3)GlcNAc6S = molecular target: Gal(b1-3)GlcNAc6S
# In short: as §1
# [25] = molecular target: Gal(b1-3)[Fuc(a1-4)]GlcNAc
# In short: as §1
# [26] = molecular target: Gal(b1-3)[Fuc(a1-4)]GlcNAc(b1-2)Man
# In short: as §1
# [27] = molecular target: Gal(b1-3)[Fuc(a1-4)]GlcNAc(b1-2)Man(a1-3)[Gal(b1-3)[Fuc(a1-4)]GlcNAc(b1-2)Man(a1-6)]Man(b1-4)GlcNAc(b1-4)[Fuc(a1-6)]GlcNAc
# In short: as §1
# [28] = molecular target: Gal(b1-3)[Fuc(a1-4)]GlcNAc(b1-3)Gal(b1-3)[Fuc(a1-4)]GlcNAc
# In short: as §1
# [29] = molecular target: Gal(b1-3)[Fuc(a1-4)]GlcNAc(b1-3)Gal(b1-4)[Fuc(a1-3)]GlcNAc
# In short: as §1
# [30] = molecular target: Gal(b1-3)[Fuc(a1-4)]GlcNAc(b1-6)GalNAc
# In short: as §1
# [31] = molecular target: Gal(b1-3)[GlcNAc(b1-6)]GalNAc
# In short: as §1
# [32] = molecular target: Gal(b1-3)[Neu5Ac(a2-6)]GalNAc
# In short: as §1
# [33] = molecular target: Gal(b1-3)[Neu5Ac(a2-6)]GlcNAc(b1-4)Gal(b1-4)Glc
# In short: as §1
# [34] = molecular target: Gal(b1-3)[Neu5Ac(b2-6)]GalNAc
# In short: as §1
# Gal(b1-4)Gal = molecular target: Gal(b1-4)Gal
# In short: as §1
# [35] = molecular target: Gal(b1-4)GalNAc(a1-3)[Fuc(a1-2)]Gal(b1-4)GlcNAc
# In short: as §1
# [36] = molecular target: Gal(b1-4)GalNAc(b1-3)[Fuc(a1-2)]Gal(b1-4)GlcNAc
# In short: as §1
binder,measurement,setting,value
HPL (Tachypleus tridentatus) (protein) MEDDCTCVTDRSLEGKLMKHPSTPAVYQILDGCRRLVPNPPTYNNIYKNWECIQSNILEKLLCKCDSLSNGAELIKGSGDTVYLLSNGVKRPIADPETFNGFCFDWNKIKTYSDIVINSLSTGPIIIIKHHHHHH,glycan array binding signal (z-score),Gal(b1-2)Gal,0.438
same,glycan array binding signal (z-score),Gal(b1-3)Gal,0.497
same,glycan array binding signal (z-score),Gal(b1-3)Gal(b1-4)GlcNAc,-0.282
same,glycan array binding signal (z-score),Gal(b1-3)GalNAc,-0.241
same,glycan array binding signal (z-score),[1],-0.336
same,glycan array binding signal (z-score),[2],-0.266
same,glycan array binding signal (z-score),Gal(b1-3)GalNAc(b1-3)Gal,-0.319
same,glycan array binding signal (z-score),[3],-0.097
same,glycan array binding signal (z-score),[4],-0.231
same,glycan array binding signal (z-score),[5],-0.229
same,glycan array binding signal (z-score),Gal(b1-3)GlcNAc,-0.177
same,glycan array binding signal (z-score),[6],-0.413
same,glycan array binding signal (z-score),[7],-0.382
same,glycan array binding signal (z-score),Gal(b1-3)GlcNAc(b1-2)Man,-0.174
same,glycan array binding signal (z-score),[8],0.239
same,glycan array binding signal (z-score),[9],0.727
same,glycan array binding signal (z-score),[10],0.599
same,glycan array binding signal (z-score),[11],-0.169
same,glycan array binding signal (z-score),[12],0.732
same,glycan array binding signal (z-score),[13],-0.059
same,glycan array binding signal (z-score),[14],0.01
same,glycan array binding signal (z-score),[15],0.362
same,glycan array binding signal (z-score),[16],0.189
same,glycan array binding signal (z-score),[17],0.382
same,glycan array binding signal (z-score),[18],-0.248
same,glycan array binding signal (z-score),[19],-0.309
same,glycan array binding signal (z-score),[20],-0.372
same,glycan array binding signal (z-score),[21],-0.36
same,glycan array binding signal (z-score),[22],-0.403
same,glycan array binding signal (z-score),[23],-0.329
same,glycan array binding signal (z-score),[24],-0.084
same,glycan array binding signal (z-score),Gal(b1-3)GlcNAc6S,-0.377
same,glycan array binding signal (z-score),[25],-0.223
same,glycan array binding signal (z-score),[26],1.71
same,glycan array binding signal (z-score),[27],-0.28
same,glycan array binding signal (z-score),[28],-0.131
same,glycan array binding signal (z-score),[29],-0.097
same,glycan array binding signal (z-score),[30],-0.093
same,glycan array binding signal (z-score),[31],0.017
same,glycan array binding signal (z-score),[32],0.986
same,glycan array binding signal (z-score),[33],-0.337
same,glycan array binding signal (z-score),[34],-0.356
same,glycan array binding signal (z-score),Gal(b1-4)Gal,-0.234
same,glycan array binding signal (z-score),[35],-0.198
same,glycan array binding signal (z-score),[36],-0.315
